This passage reports binding signal results from paper PMC12136788.

First the molecules themselves.
B1: chr8:96751671:96751672:+_ENSMUSG00000032939_ENSMUST00000079961|mus_mus|FALSE|FALSE (ssRNA)
RNA: GGGAGUUCUACAGUCCGACGAUCUGUGCGUGUGAGGGUACGGGAACGCAGGCGCUCACCAGCUUGCUGGAUCUCCUGUAAAUUUCGUUCUACAUGUGGAAGCUCAGAGAUGCCUUCAGUCUCAGCAGCAAGCUGUUCAGCUUGCAACAGAGGAUUGAGCAUCA
B2: chr14:23058014:23058015:-_ENSG00000129562_ENST00000250498|hu_mus|FALSE|FALSE (ssRNA)
RNA: GGGAGUUCUACAGUCCGACGAUCAGGAGAUAGGCGUCCAGCAACUUCAGCCGCUGCGGAGUGGAGCUCAAGUACUCCUCCAGGAACCGGGAGAUGACGGACACCACAGACGCCGACAUGACGAACACGGGGACUUCGGAUACCCAACAGAGGAUUGAGCAUCA
B3: chr19:58207738:58207739:+_ENSMUSG00000054843_ENSMUST00000077282|mus_mus|FALSE|FALSE (ssRNA)
RNA: GGGAGUUCUACAGUCCGACGAUCUAAUUGGCCACAGAGUUAACAGUAGUGUGUGACAUUGCAUUAAUUCCAUAAUUAUCUAAAAUUCAAAAAUUUUAAAGUUUUAAGAACCUGGGGGAUUCACAGUGGAUGAGGCCUGACAGCCAACAGAGGAUUGAGCAUCA
B4: chr17:62496344:62496345:-_ENSG00000108654_ENST00000581693|hu_hu|motif|central (ssRNA)
RNA: GGGAGUUCUACAGUCCGACGAUCCCCAAAAUCUCUUUUAAGCAGGCUAGAGUAACCUCUGUCAUAAUUUUCCCUGUCUCGGAAGGUAUUAAAUCCACCCCUUUUGCCCGCAGAGUAUCUGUCCCGACGGUCAUCCUUCAUGCCCAACAGAGGAUUGAGCAUCA
B5: chr7:54825262:54825263:-_ENSG00000132432_ENST00000352861|hu_hu|hu_hu_hu_mus_False|18_88 (ssRNA)
RNA: GGGAGUUCUACAGUCCGACGAUCCUGCCGGCUGGGCUCCACAAACUUUACCUGAUCAUCCAUGUUUGUUGGAUGGCGGAUUGAGAGCGUAGAGACACGUAGCUCAGGAGAGAACCGGAUGGAGGCCAACCGGAAGCUGGCAACCAACAGAGGAUUGAGCAUCA
B6: chr11:53076483:53076484:-_ENSMUSG00000020361_ENSMUST00000020630|mus_hu|motif|central (ssRNA)
RNA: GGGAGUUCUACAGUCCGACGAUCUUCAAAUAAUUUUGGUCGUUCUUCAGAUUCCUGGAAACGUAUCUUAAUAGGUUGACCGGGAUUUUUUAAUUCAGCCAACUUAUCAACAUAAACUUGCUUUGGCUGGUCUUCUCCAUCCUCCAACAGAGGAUUGAGCAUCA
B7: chr17:35975164:35975165:-_ENSMUSG00000001525_ENSMUST00000001566|mus_mus|motif|central (ssRNA)
RNA: GGGAGUUCUACAGUCCGACGAUCGACCGGAGCCCGGGAGGCUGCAGCAGCGAGAUGCAAGCACGACCGCAGGAAGGUUCGGAGAGGCAGAAGAGGCCGGCGAGCGCAGGAGGGAAGGCGCGCAGGGCGGGGCUCGCGUUCGCGCAACAGAGGAUUGAGCAUCA
B8: chr1:219384882:219384883:+_ENSG00000143353_ENST00000366928|hu_hu|motif|central (ssRNA)
RNA: GGGAGUUCUACAGUCCGACGAUCGGUCACUCCUAGAGAUUUUAACAUUGAGUUUGUCUCUUCUGCCCAAGAAUGAAGAACGGACUCAUCUGCAGUACCAUGACACUGAAAUAAUUCAGGAAGUACACCAUUACUCUUCUGAAGCAACAGAGGAUUGAGCAUCA
B9: chr2:132618855:132618856:+_ENSMUSG00000027350_ENSMUST00000028826|mus_hu|FALSE|FALSE (ssRNA)
RNA: GGGAGUUCUACAGUCCGACGAUCUUCAGGUUCUUCCUCUGAAGCCCUGUAGUGGGUUGAAUGGUGGUCCCUCUUUUCCCCUAAACUGGCCAUGCUGACGUUUGACUCCUCAGAUUCCUCCUGGGGGUGUCCCUUUUCCUCAGACAACAGAGGAUUGAGCAUCA
B10: chr2:216981417:216981418:+_ENSG00000079246_ENST00000392132|hu_hu|hu_hu_hu_mus_True|1_98 (ssRNA)
RNA: GGGAGUUCUACAGUCCGACGAUCCUGAUACUGGUCCCCACCAGAAAGGGCAUUAUCAGUGCCAUCUGUGCCAUAGAGGACUAACGCAAUCUCAUCUUUGCUCUCCGAAAAUACCUGUCGUUGGACAAACAUAGUCAUCACCUUCAACAGAGGAUUGAGCAUCA
B11: chrX:45547847:45547848:-_ENSMUSG00000036985_ENSMUST00000037960|mus_hu|FALSE|FALSE (ssRNA)
RNA: GGGAGUUCUACAGUCCGACGAUCAGGGUCACUGAAGCUGGUCCUCAACAGUGUAGCCAUGGAGAAAAGGAAGAGCAUGGCAGCAAAUACAGGGAUGGCAGGAGACAGCUGAACAGCCAGGUAGCGGCACUCAAAGGCGAAGAACAACAGAGGAUUGAGCAUCA
B12: chrX:71549400:71549401:+_ENSMUSG00000019087_ENSMUST00000019231|mus_hu|mus_mus_mus_hu_False|48_108 (ssRNA)
RNA: GGGAGUUCUACAGUCCGACGAUCGCAAGGAAGAGGAGGAAGCUCUUCAGUCCAGUGCGCUGCAGGGUGGGAAAGCAACAACACGGAACCAAUACUCCCCUCAACCCCCCCACUGGCACAGGGUCACACAAUCUGGGUCAAAGACAACAGAGGAUUGAGCAUCA
B13: chr1:230810825:230810826:+_ENSG00000135775_ENST00000366669|hu_hu|FALSE|FALSE (ssRNA)
RNA: GGGAGUUCUACAGUCCGACGAUCUUUCUCAUGAAAUGCAUCGGGAUUCCCAGGAUUAAAAAGCGAGGGUAACUUUUCUUCUAAUCCUUGUACUAUUUGUGGCCAAACAGAAUUCACCAAAAAGUCAUAUCCAGGAACAGUAUUCAACAGAGGAUUGAGCAUCA
B14: chrX:98862621:98862622:+_ENSMUSG00000034160_ENSMUST00000044475|mus_hu|mus_mus_mus_hu_False|68_88 (ssRNA)
RNA: GGGAGUUCUACAGUCCGACGAUCCUGCAUCUCCUUUAGAGUGUUUCCCAUAUUGGAGUAGGCAUCAGCAAAUGUAGGACUGAUUCGAAUAGCCUCCUUAUAAUGCAUCAGAGCUUCCUGCAGUUUUCCCUGCUGCUGCAGUACCAACAGAGGAUUGAGCAUCA
B15: chr16:94653416:94653417:+_ENSMUSG00000040785_ENSMUST00000117648|mus_mus|FALSE|FALSE (ssRNA)
RNA: GGGAGUUCUACAGUCCGACGAUCCACGACGUGGAAAUCAAGCUCCUUGAGAGAUGCUCCGUACCGAGUGAAAAAGGGUCCUAUGGCAUCCAAGCCAAAACUAUUCAGUCUCUGGAUCCAGGGAGCCAACUUGGGGUCUAACUCCAACAGAGGAUUGAGCAUCA
B16: 31863339_31864431_815_CDS_ENSG00000129493_ENST00000543095|human|control|control (ssRNA)
RNA: GGGAGUUCUACAGUCCGACGAUCGGAACCUUCAAAGGACUUAAAACACAGUGUGGCCACACUGUCCAGGUCCGUACUCCACAUAAAGAUGGCUUCAUUCUGAAGUUCAAGGAGACACUUUGCAGCAGCACAACGAACAGCCAUCAACAGAGGAUUGAGCAUCA
B17: 176637440_176637560_2145_CDS_ENSG00000165671_ENST00000439151|human|control|control (ssRNA)
RNA: GGGAGUUCUACAGUCCGACGAUCCUCUGCACUCUUAGUACAACCCAUUAAGUGGUCUGUAUGUGAGUUACUAAUGAGAGGCUUCUGUUUUGCUUUUACCCUAGUGUUUGUGGCAGCAAACCUAGAAUACUUUAUCUUUUCAUUCAACAGAGGAUUGAGCAUCA
B18: 18893549_18895400_1583_CDS_ENSG00000157106_ENST00000446231|human|control|control (ssRNA)
RNA: GGGAGUUCUACAGUCCGACGAUCCCUCACCACAGUACUAAAUACCCGGAGAAGUGCAGCCAGCUUUGGUAAUGACACUGAUGGAGGAGGGACAUCUUCAUCCACUGAUUCCCCAGAGGCCACAUGGCUGAGGUCCUCAGCAUACAACAGAGGAUUGAGCAUCA
B19: chr2:5814250:5814251:-_ENSMUSG00000025816_ENSMUST00000102981|mus_hu|mus_mus_mus_hu_True|1_58 (ssRNA)
RNA: GGGAGUUCUACAGUCCGACGAUCUUCCUUUCCGGUUUCUGAAUUUCUGGUAGAACUGCACAGAAUGGUUUGAUAACUUCUAAAAACUUGAUGCCCAUGGCUGCUGCUGGGGAGGCCCAGGGGGAAACCGCGGCCUCGCAGCUGCAACAGAGGAUUGAGCAUCA
B20: chr2:179515052:179515053:+_ENSMUSG00000000305_ENSMUST00000000314|mus_hu|mus_mus_mus_hu_False|18_58 (ssRNA)
RNA: GGGAGUUCUACAGUCCGACGAUCGCUGUCCCAUGCAGUCACCGUGAACGCCACCUGCUCGGAGGGGACCUGCAGCUCCCUAGUGGCGAAGACUGUCCCAUCUGCCCCAACUUUGAAGUCCAAGCUGUUGGUCUCAUAUUGUGUCAACAGAGGAUUGAGCAUCA
B21: chr1:171882756:171882757:-_ENSMUSG00000026675_ENSMUST00000027989|mus_mus|motif|central (ssRNA)
RNA: GGGAGUUCUACAGUCCGACGAUCGAGGAAAAACAAGAAGUAGAAGUCCUACCCAGUGGCAUUGCCCCUCCGUGCUGAGACGGAAAGAAGCUUCAGGCUGUACUGUGUCCCCAUCACACAAGUCAAAACUACUGGGCUCUAGGACAACAGAGGAUUGAGCAUCA
B22: 55802173_55802293_2024_3pUTR_ENSMUSG00000045767_ENSMUST00000057844|mouse|control|control (ssRNA)
RNA: GGGAGUUCUACAGUCCGACGAUCAUGCUGAGAUCAAAUUCAUGGACCACCACACCUGGCCCAGGGAAAGCUUCUCAACUUCAAAGUUCAUAAUAUUUUACUUAGAACUCAGAAUAAAUAAAAUGUGUAUUAACACUAGGGAGACAACAGAGGAUUGAGCAUCA

This is one part of the list.

In the test the target is T1, UNK ZnF1-3 (human, UniProt Q9C0B0 31-174).
T1 sequence: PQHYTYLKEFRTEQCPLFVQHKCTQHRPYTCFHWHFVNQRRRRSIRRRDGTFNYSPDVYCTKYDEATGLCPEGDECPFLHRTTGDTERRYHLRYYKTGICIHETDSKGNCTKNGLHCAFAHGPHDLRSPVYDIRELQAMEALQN
Kind of test: nsRBNS (natural sequence RNA bind-n-seq); RBNS binding buffer (assumed for nsRBNS): 25 mM Tris pH 7.5, 150 mM KCl, 3 mM MgCl2, 0.01% Triton X-100, 500 ug/ml BSA, 20 U/ml SUPERase-In, 4 C; UNK is unkempt and MSI1 is Musashi-1; names of the RNAs are library labels; protein concentration not given here; high values mean tight binding.
Take B1: the binding signal stood at 0.997 enrichment R.

B2 yielded a binding signal of 1.07 enrichment R.

B3 showed a binding signal of 1.18 enrichment R.

As to B4, the binding signal is 0.798 enrichment R.

Regarding B5, the binding signal is 0.625 enrichment R.

The molecule B6 gave a binding signal of 0.53 enrichment R.

B7 had a binding signal of 1.74 enrichment R.

As for B8, the binding signal came out at 0.856 enrichment R.

B9 returned a binding signal of 0.708 enrichment R.

Molecule B10 yielded a binding signal of 0.992 enrichment R.

The molecule B11 had a binding signal of 1.89 enrichment R.

Turning to B12, the binding signal came out at 1.7 enrichment R.

Consider B13, for which the binding signal came out at 1.23 enrichment R.

On to B14, for which the binding signal is 1.05 enrichment R.

B15 yielded a binding signal of 0.983 enrichment R.

B16 returned a binding signal of 0.971 enrichment R.

Consider B17, for which the binding signal amounted to 0.407 enrichment R.

In turn, B18 returned a binding signal of 1.25 enrichment R.

Regarding B19, the binding signal was 0.786 enrichment R.

For the molecule B20, the binding signal was 0.765 enrichment R.

In the case of B21, the binding signal was 0.932 enrichment R.

The molecule B22 came in with a binding signal of 1.18 enrichment R.
